Source: PubChem BioAssay AID651820 (National Center for Advancing Translational Sciences (NCATS), 2012)
Among all 340,000 compounds or so, about 12,000 (3.5%) were called active. Inconclusive means that the source gave no clear call. Such entries were picked first, then a sample of the others. The call rests on the fitted dose curve; in most records, active means well fitted inhibition curve with a large enough effect; inconclusive means small, poorly fitted or top-dose-only effect, or another doubt; inactive means no such curve, though single readings can be large or run the other way. No potency is given beside an inconclusive call; the fits are too rough.

Test: qHTS Assay for Inhibitors of Hepatitis C Virus (HCV)
Conditions: Huh7.5.1 HCVcc-Cre (HCVcc is cell-culture hepatitis C virus) infection, luciferase reporter, 44 h; activity change, negative = inhibition: at 41.8 µM (top of the series)
Summary of the method: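 After 44 h co-culture of compound, cells and HCVcc-Cre (~0.5 moi), substrate is added for 15 min at room temperature and luciferase measured over 15 sec. Cells were seeded at 1,000/well and pre-cultured 4 h.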
On the % scale 0 is the no-effect control and ±100 the full control effect; potency means the concentration at half of the fitted maximal effect; tags describe the fitted curve by direction and shape.

Structure (SMILES) | Potency | activity change, negative = inhibition
COc1ccccc1NC(=O)CSCC(=O)N1c2ccccc2CCc2ccccc21 | active: 25.1 µM | –
C=CCN1C(c2ccc(Br)cc2)=CS/C1=C(/C#N)c1nnc(N2CCOCC2)n1-c1ccccc1 | inconclusive [inhibitor, single point] | –
NC(Cc1ccc(O)cc1)C(=O)NN=Cc1ccc(N(CCCl)CCCl)cc1 (stereo not given) | inconclusive [inhibitor, full curve] | –
CCN(CC)S(=O)(=O)c1ccc2oc(C(=O)NC(C)C)c(C)c2c1 | inconclusive [inhibitor, single point] | –
O=C(Nc1ccccc1N1CCCCC1)c1cc(S(=O)(=O)N2CCOCC2)ccc1Cl | inconclusive [inhibitor, single point] | –
O=C(CCN1CCOCC1)Nc1ccc2c(c1)CCC2 | inconclusive [inhibitor, single point] | –
CCOc1ccccc1N=NC1C(=O)N(C(N)=S)N=C1C (stereo not given) | inconclusive [inhibitor, single point] | –
CCSC(=S)c1c(C)[nH]n(-c2ccccc2)c1=O | inconclusive [inhibitor, single point] | –
COc1ccc(/C=C/C(=O)c2ccccc2)cc1COc1ccccc1F | inconclusive [inhibitor, partial curve, poor fit] | –
COc1ccc(Oc2nnc(C)c3ccccc23)cc1 | inconclusive [inhibitor, single point] | –
S=c1[nH]nc(-c2ccc3ccccc3n2)n1-c1cc(Cl)cc(Cl)c1 | inconclusive [inhibitor, partial curve, poor fit] | –
O=C(COc1ccc(Br)cc1CO)Nc1ccccc1F | active: 25.1 µM | –
Cc1nn(-c2ccccc2)c(C)c1/C=N/NC(=O)c1ccc(F)cc1 | inconclusive [inhibitor, full curve, poor fit] | –
c1ccc2c(c1)OCC(CNc1ncnc3sccc13)O2 (stereo not given) | active: 1 µM | –
COc1ccc(-c2cc(C(F)(F)F)nc(S(=O)(=O)CCCC(=O)Nc3cc(C)on3)n2)cc1OC | inconclusive [inhibitor, single point] | –
Cc1cc(C(C)(C)C)oc1C(=O)N(CC(=O)NC1CCCC1)Cc1ccccc1Cl | inconclusive [inhibitor, partial curve] | –
COc1ccc2nc(NC(=O)Cc3cccs3)sc2c1 | inconclusive [inhibitor, partial curve] | –
COc1cc2c(cc1OC)C(c1cc3cc4c(cc3[nH]c1=O)OCO4)N(C(=O)C(C)C)CC2 (stereo not given) | inconclusive [inhibitor, single point] | –
Cc1cc(NC(=O)c2cc(-c3ccc(OC(C)C)cc3)nc3ccccc23)no1 | inconclusive [inhibitor, single point] | –
O=c1c2ccc([N+](=O)[O-])cc2ncn1CCOc1ccccc1 | inconclusive [inhibitor, partial curve] | –

Structure (SMILES) | Potency | activity change, negative = inhibition
CC(C)Cn1cnc2c(SCc3ccc(Cl)cc3)nc(N)nc21 | inconclusive [inhibitor, single point] | –
Cc1ccc(-n2c(N)c(C(=O)N3CCOCC3)sc2=S)cc1 | inconclusive [inhibitor, single point] | –
COCCOn1c(SCCOC)nc2ccccc2c1=O | inactive | –
CCc1nn(C(C)C(=O)N2CCN(c3ccc(OC)cc3)CC2)c(=O)c2cc3occc3n12 (stereo not given) | inconclusive [inhibitor, single point] | –
O=C(Cn1cc(/C=C\[N+](=O)[O-])c2ccccc21)Nc1ccccc1 | inconclusive [inhibitor, single point] | –
CNC(=S)N1N=C(c2ccc(C)cc2)CC1c1ccc(OC)cc1 (stereo not given) | inconclusive [inhibitor, partial curve] | –
Cc1[nH]nc2nc(SCC(=O)NCCC3=CCCCC3)n(-c3ccc(Br)cc3)c(=N)c12 | inconclusive [inhibitor, partial curve] | –
C[C@H]1CN([C@@H](C)CO)C(=O)c2cccc(NC(=O)c3nc4ccccc4s3)c2O[C@H]1CN(C)C(=O)Nc1ccc(F)cc1 | inconclusive [inhibitor, full curve] | –
Cc1nc(SCc2ccccc2)c2ccsc2n1 | inconclusive [inhibitor, single point] | –
COCCCn1c(=O)c2sccc2n(Cc2cc(C(=O)OC)ccc2OC)c1=O | inconclusive [inhibitor, single point] | –
CCN(C(=O)COC(=O)/C(C#N)=C/c1ccc(OC)cc1)C1CCS(=O)(=O)C1 (stereo not given) | – | inactive: 2.35% [at 8.37 µM]
O=C(c1ccco1)N1CCc2[nH]nc(-c3ccc(Cl)cc3)c2C1 | active: 11.2 µM | –
CCn1nc(C(=O)NNC(=O)c2ccccc2)c2ccccc2c1=O | inconclusive [inhibitor, full curve, poor fit] | –
CCC(C)[C@@H](C(=O)Nc1ccc2c(c1)OCO2)N1Cc2ccccc2C1=O (stereo not given in full) | inconclusive [inhibitor, single point] | –
Cc1ccccc1NC(=O)c1ccc2c(c1)CCN2S(C)(=O)=O | inconclusive [inhibitor, single point] | –
Cn1nc(C(F)(F)F)cc1C(=O)Nc1ccc(Cl)cc1 | inconclusive [inhibitor, single point] | –
O=C(c1ccnc(Cl)c1)N1CCCC(N2CCN(c3ccccc3F)CC2)C1 (stereo not given) | inconclusive [inhibitor, partial curve] | –
COc1ccc(Cl)cc1NC(=O)COC(=O)C1CCCCC1 | inconclusive [inhibitor, single point] | –
CC(=O)Nc1ccc(NC(=O)CSc2nccn2Cc2ccc(Cl)cc2)cc1 | inconclusive [inhibitor, partial curve] | –
Cn1c(SCc2cccc([N+](=O)[O-])c2)nc2c(c1=O)SCC2 | inconclusive [inhibitor, single point] | –
